Source: the supplement of paper PMC10126150
Values marked as one replicate rest on one cluster of the flow cell; about a third of the high ones do not repeat.

Test system: ATP
Assay: switch fluorescence ratio, 500 uM ATP over buffer (Cy3 cluster intensity, sum of 5 cycles each) (fold (ratio)); higher = stronger signal-on switching upon ATP binding; sequences stand for … in TCGTCGGCAGCGTCAGATGTGTATAAGAGACAGTTTTTTTTTTTTTTTTTTTTTTTTT…TC
Conditions: aptamer strand: ATP DNA aptamer (quencher-CACCTGGGGGAGTATTGCGGAGGAAGG + anchor), 100 nM annealed; ATP concentration: 500 uM; one replicate
Method in brief: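 Values give the fluorescence ratio for each switch-domain sequence, averaged from per-cluster ratios of summed target-cycle to summed buffer-cycle Cy3 intensity. The Cy3-labelled switching-strand clusters sat on a modified Illumina MiSeq flow-cell, were annealed to 100 nM quencher-labelled ATP aptamer, and were imaged in selection buffer, then after 15 min with 500 uM ATP at 22 °C. Five cycles ran with NaOH stripping and re-annealing between them, and clusters outside 100-1000 RFU were excluded.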
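Also: ATP exposure 15 min at 22 °C before imaging.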

Sequence	switch fluorescence ratio
CAGCTGATTC	1
TCAAAAGCTC	1.07
ATGGTGAGTA	1.12
TTGGTAAGGC	0.996
ATCGGAAGGC	1.18
GAGGTTATTT	1.16
CAGCTGAGTT	1.02
ATAAGCGTTG	0.983
CAGCGAATAT	1.11
AGGAGGCAGC	0.959
ATACGCGCGG	0.973
ACATGCTCTG	1.05
TGGAGTGTT	0.998
GTGTACGCGA	1.26
GTTGACCCA	0.99
GCTGGAATTT	0.961
AGGCAGGATG	0.938
GAGCTGGCTG	0.986
CTCGGGTCA	0.987
GCCGTGAGCG	0.997
GGAGAAATGC	1.2
ATATTTAAGA	1.03
CGTTCCTCTC	1.57

Sequence	switch fluorescence ratio
AGGCCGTTGA	0.982
CTAGCCTAGA	1
GATATGTGCG	0.985
TATGAACCCC	1.25
GGCATGTAGT	1.01
ATCGTGTATT	1.01
CATCGACGTA	1.22
ATCTCGTTGG	1.02
GGGTACACGA	0.955
CTTTAACTGC	1.01
AAAACGGAGG	0.99
TGTTGCCCGA	1.07
GAGCCGCACT	1.1
TGAAGGACAT	1.02
CGGGTGCCCT	1.01
CAATGCCGTT	1.02
AACGTCCTCG	0.994
TTTGGGGCAC	1.03
TGCTTAATGG	0.981
TTGCGCAAAA	1.12
AACTACCGCG	1.16
TCAACCAGGA	1.1
ACGGCTTTAA	0.995

Sequence	switch fluorescence ratio
TTATTCCAAA	1.01
TGCCTTGAGG	1.01
TTTTCTAGTT	0.98
AATATAGGCA	0.943
AGGTTTCTAT	1.04
CATAGTGCGG	1
CGGTGATGGT	1.06
ATCCTCGTTC	0.986
TGCAAGGGTC	1.12
ATGCACTCCA	1.11
TTTCACCCGA	1.09
TAATCATGTT	0.973
GGTAATCTTT	0.956
TCTGGCGGAG	0.996
ATGCCCGTCA	1.08
ATCTCGCGTT	0.961
CGGGGCGGGT	1.05
AAGTTGTCTA	0.973
AAGTATCAAG	0.952
TGACTCCGG	2.32
TGGTAGGTAT	0.959
CCATTAGAGC	0.949
GAGCTAGATT	0.976

Sequence	switch fluorescence ratio
CACGGCGGGC	0.958
GATCCGCAGG	1.11
AGCCCATGCG	0.945
ATGGACTGCT	1
TGACTCTCGG	1.06
ACAAAACGAG	1.06
ATCATCAAGA	1.01
TGTGGTGGAA	1.02
CCTAAAGTCA	1
GAGTGCGTG	0.966
TTCTAAAAA	1.94
GCAAGATGCC	1.1
GCGTGGACAC	1.05
CGACCTGCCG	1.06
CGGGAAGAAC	0.956
GGTTTGGGAA	0.983
TACCCTTATC	1.09
CATGTTGTTG	0.977
CGAGTATGTA	1.01
AAACAGGCG	1.03
CGTTCTCGTG	1.03
CCAAATTTAC	1.32
ATTTGCTAGG	1

Sequence	switch fluorescence ratio
AGTCTTAAAA	0.961
CAAGCGTAAT	1.13
AAAAAACTAC	1.14
GTTCGGAGC	1.19
TCCCTGTAAT	1.22
GTTTTCGAGG	0.986
ACAGTACTGT	0.961
CCGGTTTTCA	1.07
AGGAAGTCGA	1.01
ATAACTTGTA	0.971
AAGGAACTTC	1.06
CCGACACCAG	1.14
GATTCCTCTT	2.23
CCCCTGCCAA	4.72
TTAAACCT	2.58
GAAACTGCTA	1.06
CGTGTTTTGG	0.947
CCTATCCATA	1.11
GTCGTAAGCG	0.902
GGAGTTAAAC	0.995
GATTCTTCTG	1.01
CTAGACCCG	1.01
GCGATAAAGA	0.979

Sequence	switch fluorescence ratio
AGATGAATCC	0.957
GAAACTTAGA	0.99
GGAACATGCT	0.947
CCCCGGGCCC	1.22
GAGACTTAGG	1.02
TTCTGATATA	0.978
TCAAATTGAT	1.02
CATGTCTCGG	0.976
GTGAGACATC	1.01
CGTTCAGGGT	0.993
GGCCCTGAAC	1.06
GTGGCCTTCT	0.977
TACCGTTTCG	1.01
GTTAGCAGAA	1.02
AACTATCACG	1.14
GCTTAGGTAC	1.06
CAAAGAGTTA	1
CGCGGGACGT	1
GGATTAATTA	1
CTCGGATCCG	1.12
CGTCGGTATT	1.02
TGCTCGGTCG	1.02
ATATTGCTC	1.18

Sequence	switch fluorescence ratio
ATTCCTACTG	1.06
GGTTGCATGC	0.999
TTTCCCTAGG	1.2
CACCGTAGCG	1.15
CACTCGTGTC	0.972
CTATCTCCTG	1.01
AAAACTCTAT	1.02
GCTTACGAAA	1.07
CAGAGTCGG	0.942
TGTGGGGCCG	1.03
GGTGTAGTAA	1.03
TTCCTCTCTG	1.06
TACGCGGAAT	0.988
GTCTCTATTA	1.01
CACTCTCGC	1.16
TAGGCATTAA	1.02
ACGGGTGTCA	0.981
GGGCTTAGCA	0.99
GGGTATATGA	1.01
